From the supplement of paper PMC4967469
The IC50 comes from the fitted curve, where viability falls to half of the control; a limit (>, <) means that the fit lies beyond the doses tested. AUC is the area under the same curve over the 256-fold range up to the top dose, as a fraction; the more sensitive the line, the further below 1. For some of these results: An inferred top dose comes from the curve model; the source does not state it.

What was measured:
Assay in all cases: Viability of human cancer cell lines after 72 h of drug (GDSC screen)
XMD14-99 = compound: COc1cc(N2CCN(C)CC2)ccc1Nc1nc(N)c(C(=O)c2c(Cl)cccc2Cl)s1 [XMD14-99]; conditions: top dose 10.24 µM; top dose inferred
Protocol: (§1)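 Human cancer cell lines in 384-well plates, medium with 10% serum, drug for 72 h over a 256-fold dose range (nine 2-fold or five 4-fold steps up to the top dose). Adherent lines were fixed and stained with the nucleic acid dye Syto60, suspension lines read with resazurin; signal relative to control wells, capped at 0 and 100%. One two-parameter sigmoid per drug and line, fitted in a mixed model over all curves with the slope shared within a line.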

A-443654 = compound: Cc1n[nH]c2ccc(-c3cncc(OC[C@@H](N)Cc4c[nH]c5ccccc45)c3)cc12 [A-443654]; conditions: top dose 1.024 µM; top dose inferred
Protocol: as §1

FH535 = compound: Cc1cc([N+](=O)[O-])ccc1NS(=O)(=O)c1cc(Cl)ccc1Cl [FH535]; conditions: top dose 32 µM; top dose inferred
Protocol: as §1

Dasatinib = compound: Cc1nc(Nc2ncc(C(=O)Nc3c(C)cccc3Cl)s2)cc(N2CCN(CCO)CC2)n1 [Dasatinib]; conditions: top dose 1.28 µM
Protocol: as §1

AT-7519 = compound: O=C(NC1CCNCC1)c1n[nH]cc1NC(=O)c1c(Cl)cccc1Cl [AT-7519]; conditions: top dose 10.24 µM; top dose inferred
Protocol: as §1

Cell Line	AUC (XMD14-99)	IC50 (XMD14-99)	AUC (A-443654)	IC50 (A-443654)	AUC (FH535)	IC50 (FH535)	AUC (Dasatinib)	IC50 (Dasatinib)	AUC (AT-7519)	IC50 (AT-7519)
COLO-320-HSR (large intestine, suspension)	0.982	> 10200 nM	0.857	666 nM	0.821	15400 nM	0.983	> 1280 nM	0.915	> 10200 nM
MOLP-8 (myeloma, suspension)	0.893	> 10200 nM	0.393	32.9 nM	0.74	9420 nM	0.858	986 nM	0.243	120 nM
KP-N-YN (neuroblastoma, adherent)	0.981	> 10200 nM	0.913	> 1020 nM	0.771	13500 nM	0.964	> 1280 nM	0.979	> 10200 nM
NCI-H747 (large intestine, adherent)	0.912	> 10200 nM	0.555	93.5 nM	0.707	8830 nM	0.512	87.1 nM	0.485	579 nM
MDST8 (large intestine, adherent)	0.983	> 10200 nM	0.941	> 1020 nM	0.943	> 32000 nM	0.977	> 1280 nM	0.882	> 10200 nM
TE-10 (oesophagus, adherent)	0.988	> 10200 nM	0.55	87.5 nM	0.6	3740 nM	0.455	60.3 nM	0.637	1520 nM
NCI-H1092 (small cell lung carcinoma, suspension)	0.986	> 10200 nM	0.873	994 nM	0.869	30000 nM	0.978	> 1280 nM	0.627	1440 nM
DND-41 (T-cell leukaemia, suspension)	0.874	7980 nM	0.749	298 nM	0.733	8360 nM	0.898	> 1280 nM	0.215	107 nM
SK-MEL-2 (melanoma, adherent)	0.985	> 10200 nM	0.853	847 nM	0.424	1230 nM	0.971	> 1280 nM	0.659	1800 nM
ARH-77 (myeloma, suspension)	0.904	> 10200 nM	0.742	305 nM	0.878	30400 nM	0.802	604 nM	0.396	335 nM
SNU-C1 (large intestine, suspension)	0.98	> 10200 nM	0.89	> 1020 nM	0.961	> 32000 nM	0.98	> 1280 nM	0.78	6450 nM
EW-11 (Ewing sarcoma, adherent)	0.892	> 10200 nM	0.981	> 1020 nM	0.867	> 32000 nM	0.976	> 1280 nM	0.478	549 nM
NCI-H2196 (small cell lung carcinoma, adherent)	0.949	> 10200 nM	0.814	594 nM	0.879	> 32000 nM	0.95	> 1280 nM	0.71	2600 nM
SH-4 (melanoma, adherent)	0.956	> 10200 nM	0.673	256 nM	0.432	1180 nM	0.621	207 nM	0.889	> 10200 nM
JVM-3 (lymphoid neoplasm, suspension)	0.986	> 10200 nM	0.921	> 1020 nM	0.921	> 32000 nM	0.976	> 1280 nM	0.721	2750 nM
JM1 (B-cell lymphoma, suspension)	0.958	> 10200 nM	0.627	136 nM	0.734	8260 nM	0.883	1030 nM	0.355	272 nM
KELLY (neuroblastoma, adherent)	0.989	> 10200 nM	0.742	290 nM	0.732	8520 nM	0.918	> 1280 nM	0.872	8230 nM
RH-1 (rhabdomyosarcoma, adherent)	0.983	> 10200 nM	0.99	> 1020 nM	0.766	9950 nM	0.984	> 1280 nM	0.476	557 nM
Hs-445 (Hodgkin lymphoma, suspension)	0.962	> 10200 nM	0.658	170 nM	0.798	13900 nM	0.906	> 1280 nM	0.336	232 nM
NCI-H1304 (small cell lung carcinoma, suspension)	0.988	> 10200 nM	0.677	208 nM	0.935	> 32000 nM	0.976	> 1280 nM	0.796	5240 nM
697 (lymphoblastic leukaemia, suspension)	0.859	5930 nM	0.388	33.7 nM	0.725	7440 nM	0.675	220 nM	0.206	111 nM
MC-CAR (haematopoietic neoplasm, suspension)	0.952	> 10200 nM	0.914	> 1020 nM	0.707	7120 nM	0.915	> 1280 nM	0.483	577 nM
MZ7-mel (melanoma, adherent)	0.946	> 10200 nM	0.744	330 nM	0.527	2380 nM	0.697	292 nM	0.596	1190 nM
EVSA-T (breast, adherent)	0.991	> 10200 nM	0.71	226 nM	0.81	14000 nM	0.933	> 1280 nM	0.591	1090 nM
NEC8 (testis, adherent)	0.991	> 10200 nM	0.945	> 1020 nM	0.845	18100 nM	0.96	> 1280 nM	0.381	318 nM

Cell Line	AUC (XMD14-99)	IC50 (XMD14-99)	AUC (A-443654)	IC50 (A-443654)	AUC (FH535)	IC50 (FH535)	AUC (Dasatinib)	IC50 (Dasatinib)	AUC (AT-7519)	IC50 (AT-7519)
CCRF-CEM (lymphoblastic leukaemia, suspension)	0.95	> 10200 nM	0.643	148 nM	0.69	6140 nM	0.972	> 1280 nM	0.367	294 nM
LNCaP-Clone-FGC (prostate, adherent)	0.937	> 10200 nM	0.92	> 1020 nM	0.774	14300 nM	0.984	> 1280 nM	0.443	437 nM
HAL-01 (lymphoblastic leukaemia, suspension)	0.865	7370 nM	0.973	> 1020 nM	0.765	10400 nM	0.941	> 1280 nM	0.899	> 10200 nM
KY821 (leukaemia, suspension)	0.992	> 10200 nM	0.712	231 nM	0.911	> 32000 nM	0.989	> 1280 nM	0.702	2170 nM
KARPAS-299 (anaplastic large cell lymphoma, suspension)	0.838	5330 nM	0.785	360 nM	0.952	> 32000 nM	0.984	> 1280 nM	0.258	151 nM
COLO-829 (melanoma, adherent)	0.971	> 10200 nM	0.933	> 1020 nM	0.351	635 nM	0.453	56.1 nM	0.864	> 10200 nM
TE-15 (oesophagus, suspension)	0.937	> 10200 nM	0.509	68.1 nM	0.565	3090 nM	0.232	11.8 nM	0.649	1750 nM
BC-1 (B-cell lymphoma, suspension)	0.913	> 10200 nM	0.843	575 nM	0.592	3440 nM	0.985	> 1280 nM	0.264	153 nM
L-363 (myeloma, suspension)	0.966	> 10200 nM	0.647		0.684	6010 nM	0.99	> 1280 nM	0.329	230 nM
COR-L95 (small cell lung carcinoma, adherent)	0.982	> 10200 nM	0.787	523 nM	0.965	> 32000 nM	0.986	> 1280 nM	0.634	1600 nM
RPMI-8866 (chronic myeloid leukaemia, suspension)	0.988	> 10200 nM	0.832	590 nM	0.746	9500 nM	0.977	> 1280 nM	0.426	408 nM
VCaP (prostate, adherent)	0.908	> 10200 nM	0.779	433 nM	0.871	> 32000 nM	0.968	> 1280 nM	0.662	1830 nM
MFM-223 (breast, adherent)	0.978	> 10200 nM	0.829	626 nM	0.898	> 32000 nM	0.988	> 1280 nM	0.935	> 10200 nM
NB6 (neuroblastoma, adherent)	0.965	> 10200 nM	0.798	621 nM	0.771	15200 nM	0.82	968 nM	0.734	3540 nM
MSTO-211H (mesothelioma, adherent)	0.991	> 10200 nM	0.986	> 1020 nM	0.854	21600 nM	0.973	> 1280 nM	0.875	8450 nM
LOUCY (T-cell lymphoblastic leukaemia, suspension)	0.92	> 10200 nM	0.646	149 nM	0.693	6160 nM	0.992	> 1280 nM	0.039	< 40 nM
BC-3 (B-cell lymphoma, suspension)	0.965	> 10200 nM	0.76	326 nM	0.723	7880 nM	0.969	> 1280 nM	0.32	214 nM
EKVX (lung adenocarcinoma, adherent)	0.969	> 10200 nM	0.89	> 1020 nM	0.667	10000 nM	0.97	> 1280 nM	0.871	> 10200 nM
OVCAR-4 (ovary, adherent)	0.976	> 10200 nM	0.684	273 nM	0.614	4800 nM	0.697	380 nM	0.699	3100 nM
SJSA-1 (bone, adherent)	0.973	> 10200 nM	0.784	494 nM	0.658	5830 nM	0.923	> 1280 nM	0.581	1100 nM
TALL-1 (T-cell lymphoblastic leukaemia, suspension)	0.989	> 10200 nM	0.711	245 nM	0.845	21600 nM	0.988	> 1280 nM	0.728	2740 nM
LOXIMVI (melanoma, semi-adherent)	0.989	> 10200 nM	0.854	674 nM	0.787	12300 nM	0.748	373 nM	0.663	1720 nM
MRK-nu-1 (breast, suspension)	0.99	> 10200 nM	0.579	103 nM	0.557	2830 nM	0.971	> 1280 nM	0.941	> 10200 nM
EC-GI-10 (oesophagus, adherent)	0.989	> 10200 nM	0.888	> 1020 nM	0.84	21700 nM	0.981	> 1280 nM	0.955	> 10200 nM
MOLT-4 (lymphoblastic leukaemia, suspension)	0.963	> 10200 nM	0.598	113 nM	0.786	11100 nM	0.897	1060 nM	0.262	158 nM
